According to PMC9911399, “Two distinct binding modes provide the RNA-binding protein RbFox with extraordinary sequence specificity”:
Changes are numbered by the printed parent chain; changes in the protein carry UniProt numbers. The list shows a part of the results.

B1: CCUCUGC (DNA:RNA)
RNA: GGGAGACCGGAAUUCAGAUUGUCCCCUCUGCUUAAAUCCCGUCGUAGCCACCA
DNA 1: CAATCTGAATTCCGGTCTCCC
DNA 2: TGGTGGCTACGACGGGATT
B2: UCGCUCG (DNA:RNA)
RNA: B1 RNA with C25U, U27G, G30C, C31G
DNA 1: CAATCTGAATTCCGGTCTCCC
DNA 2: TGGTGGCTACGACGGGATT
B3: UCGUGUG (DNA:RNA)
RNA: B1 RNA with C25U, U27G, C28U, U29G, G30U, C31G
DNA 1: CAATCTGAATTCCGGTCTCCC
DNA 2: TGGTGGCTACGACGGGATT
B4: GAGAACG (DNA:RNA)
RNA: GGGAGACCGGAAUUCAGAUUGUCCGAGAACGUUAAAUCCCGUCGUAGCCACCA
DNA 1: CAATCTGAATTCCGGTCTCCC
DNA 2: TGGTGGCTACGACGGGATT
B5: CCUAAAU (DNA:RNA)
RNA: B1 RNA with C28A, U29A, G30A, C31U
DNA 1: CAATCTGAATTCCGGTCTCCC
DNA 2: TGGTGGCTACGACGGGATT
B6: UUCUUGG (DNA:RNA)
RNA: B1 RNA with C25U, C26U, U27C, C28U, C31G
DNA 1: CAATCTGAATTCCGGTCTCCC
DNA 2: TGGTGGCTACGACGGGATT
B7: AGCCGGG (DNA:RNA)
RNA: B1 RNA with C25A, C26G, U27C, U29G, C31G
DNA 1: CAATCTGAATTCCGGTCTCCC
DNA 2: TGGTGGCTACGACGGGATT
B8: UCUUCUC (DNA:RNA)
RNA: B1 RNA with C25U, C28U, U29C, G30U
DNA 1: CAATCTGAATTCCGGTCTCCC
DNA 2: TGGTGGCTACGACGGGATT
B9: UCGGGGU (DNA:RNA)
RNA: B1 RNA with C25U, U27G, C28G, U29G, C31U
DNA 1: CAATCTGAATTCCGGTCTCCC
DNA 2: TGGTGGCTACGACGGGATT
B10: AGGUUGU (DNA:RNA)
RNA: B1 RNA with C25A, C26G, U27G, C28U, C31U
DNA 1: CAATCTGAATTCCGGTCTCCC
DNA 2: TGGTGGCTACGACGGGATT
B11: CCGUUGA (DNA:RNA)
RNA: B1 RNA with U27G, C28U, C31A
DNA 1: CAATCTGAATTCCGGTCTCCC
DNA 2: TGGTGGCTACGACGGGATT
B12: AAGCAUC (DNA:RNA)
RNA: B4 RNA with G25A, A28C, C30U, G31C
DNA 1: CAATCTGAATTCCGGTCTCCC
DNA 2: TGGTGGCTACGACGGGATT
B13: UUCGACA (DNA:RNA)
RNA: B4 RNA with G25U, A26U, G27C, A28G, G31A
DNA 1: CAATCTGAATTCCGGTCTCCC
DNA 2: TGGTGGCTACGACGGGATT
B14: UGCGUUU (DNA:RNA)
RNA: B1 RNA with C25U, C26G, U27C, C28G, G30U, C31U
DNA 1: CAATCTGAATTCCGGTCTCCC
DNA 2: TGGTGGCTACGACGGGATT
B15: AGAAUUC (DNA:RNA)
RNA: B1 RNA with C25A, C26G, U27A, C28A, G30U
DNA 1: CAATCTGAATTCCGGTCTCCC
DNA 2: TGGTGGCTACGACGGGATT
B16: CACCAGU (DNA:RNA)
RNA: B1 RNA with C26A, U27C, U29A, C31U
DNA 1: CAATCTGAATTCCGGTCTCCC
DNA 2: TGGTGGCTACGACGGGATT
B17: ACACCAG (DNA:RNA)
RNA: B1 RNA with C25A, U27A, U29C, G30A, C31G
DNA 1: CAATCTGAATTCCGGTCTCCC
DNA 2: TGGTGGCTACGACGGGATT
B18: UGGCGUC (DNA:RNA)
RNA: B1 RNA with C25U, C26G, U27G, U29G, G30U
DNA 1: CAATCTGAATTCCGGTCTCCC
DNA 2: TGGTGGCTACGACGGGATT
B19: GCAGGGC (DNA:RNA)
RNA: B1 RNA with C25G, U27A, C28G, U29G
DNA 1: CAATCTGAATTCCGGTCTCCC
DNA 2: TGGTGGCTACGACGGGATT
B20: UGGGGGG (DNA:RNA)
RNA: B4 RNA with G25U, A26G, A28G, A29G, C30G
DNA 1: CAATCTGAATTCCGGTCTCCC
DNA 2: TGGTGGCTACGACGGGATT

These binders were tested against T1, RBFOX1 RRM (Homo sapiens, UniProt Q9NWB1 109-208) (assay: EMSA; HiTS-Eq, 1 nM pool, 10 min; buffer printed only for the single-RNA assays: 10 mM Tris pH 7.5, 150 mM NaCl, 3.4 mM EDTA, 0.001% NP-40, 30 C). Conditions: tags: His6 N-terminal (pET28a); label: 5' 32P.
T1 sequence: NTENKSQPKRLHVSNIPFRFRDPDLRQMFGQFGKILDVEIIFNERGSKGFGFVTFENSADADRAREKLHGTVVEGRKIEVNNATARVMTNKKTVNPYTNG
Outline: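 Relative association constants, normalised to the cognate motif, were derived by comparing read counts of each RNA species with those of the control reaction. The RNA sequenced was the free fraction, separated by 8% native PAGE after a 10 min equilibration in 50 µL of 1 nM 5′-radiolabelled RNA (7 randomized nucleotides) with increasing concentrations of purified wild-type or mutant RbFox RRM.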
In the case of B1, the binding signal is reported as 0.00878 KA relative to UGCAUGU.
B2 was tested, and the binding signal was 0.0321 KA relative to UGCAUGU.
With B3 the binding signal was 0.026 KA relative to UGCAUGU.
In the case of B4, the binding signal is reported as 0.0165 KA relative to UGCAUGU.
B5 was tested, and the binding signal was 0.00166 KA relative to UGCAUGU.
With B6 the binding signal was 0.0148 KA relative to UGCAUGU.
In the case of B7, the binding signal is reported as 0.0115 KA relative to UGCAUGU.
B8 was tested, and the binding signal was 0.00912 KA relative to UGCAUGU.
For B9, the binding signal was 0.0175 KA relative to UGCAUGU.
For B10, the binding signal was 0.0146 KA relative to UGCAUGU.
For B11, the binding signal was 0.0125 KA relative to UGCAUGU.
B12 was tested, and the binding signal was 0.0137 KA relative to UGCAUGU.
For B13, the binding signal was 0.00614 KA relative to UGCAUGU.
B14 was tested, and the binding signal was 0.0236 KA relative to UGCAUGU.
In the case of B15, the binding signal is reported as 0.00754 KA relative to UGCAUGU.
B16 was tested, and the binding signal was 0.00204 KA relative to UGCAUGU.
For B17, the binding signal was 0.000772 KA relative to UGCAUGU.
With B18 the binding signal was 0.0251 KA relative to UGCAUGU.
In the case of B19, the binding signal is reported as 0.0104 KA relative to UGCAUGU.
In the case of B20, the binding signal is reported as 0.0192 KA relative to UGCAUGU.
